The values that follow come from patent US20260022143A1, “Cyclic Peptide Inhibitors of IL-23” (JANSSEN PHARMACEUTICA NV, priority 2022, published 2026).

The target in the assay is T1, IL-23R (Homo sapiens, UniProt Q5VWK5).
T1 construct: host or cells: HEK293
T1 sequence (Q5VWK5 24-629): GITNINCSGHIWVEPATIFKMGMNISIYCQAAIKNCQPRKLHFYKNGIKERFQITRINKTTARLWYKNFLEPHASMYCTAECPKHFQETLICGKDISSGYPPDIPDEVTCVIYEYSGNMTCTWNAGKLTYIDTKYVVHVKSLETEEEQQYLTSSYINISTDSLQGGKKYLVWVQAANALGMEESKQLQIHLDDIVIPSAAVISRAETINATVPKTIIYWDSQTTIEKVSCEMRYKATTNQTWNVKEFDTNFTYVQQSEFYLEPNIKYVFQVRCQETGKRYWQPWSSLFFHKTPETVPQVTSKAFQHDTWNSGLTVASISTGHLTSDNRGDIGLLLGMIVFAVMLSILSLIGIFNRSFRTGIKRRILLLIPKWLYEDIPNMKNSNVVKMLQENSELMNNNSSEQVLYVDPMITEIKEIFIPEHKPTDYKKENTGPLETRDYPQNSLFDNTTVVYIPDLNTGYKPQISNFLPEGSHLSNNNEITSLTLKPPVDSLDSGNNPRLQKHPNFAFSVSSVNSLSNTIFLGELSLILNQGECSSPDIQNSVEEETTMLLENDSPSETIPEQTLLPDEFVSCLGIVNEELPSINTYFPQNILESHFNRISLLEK
Description: IL23R Reporter Assay. The following applies: IL23R Reporter Assay (micromolar), HEK293 cells containing IL-23R, IL-12RP1 and STAT-inducible firefly luciferase reporter; 10 ng/mL IL-23 (EC90); 5 h at 37° C. In kind it is cell-based.
What is called IC50 is the point on the concentration scale where inhibition reaches its midpoint. A low value points to greater potency. For the compound `CC(=O)NCCCC[C@@H]1NC(=O)[C@H](Cc2c[nH]c3c(C)cccc23)NC(=O)[C@H]([C@@H](C)O)NC(=O)[C@H](CC(N)=O)NC(=O)[C@@H](NC(C)=O)C(C)(C)SSC(C)(C)[C@@H](C(=O)N[C@@H](Cc2ccc(OCCN)cc2)C(=O)N[C@@H](Cc2ccc3ccccc3c2)C(=O)N[C@@](C)(CCCCN)C(=O)N[C@@H](CCCCNC(C)=O)C(=O)N[C@@H](CC(N)=O)C(=O)N[C@H](Cc2ccccc2)C(=O)N(C)[C@H](Cc2ccc(O)cc2)C(N)=O)NC1=O` [compound 20, MeCO-Pen(3)-N-T-7MeW-K(Ac)-Pen(3)-AEF-2Nal-aMeK-K(Ac)-N-f-NMeDTyr-CONH2], the half-maximal inhibitory concentration (IC50) stood at 300 nM. In the case of `CC(=O)NCCCC[C@@H]1NC(=O)[C@H](Cc2c[nH]c3c(C)cccc23)NC(=O)[C@H]([C@@H](C)O)NC(=O)[C@H](CC(N)=O)NC(=O)[C@@H](NC(C)=O)C(C)(C)SSC(C)(C)[C@@H](C(=O)N[C@@H](Cc2ccc(OCCN)cc2)C(=O)N[C@@H](Cc2ccc3ccccc3c2)C(=O)N[C@@](C)(CCCCN)C(=O)N[C@H](CCCCNC(C)=O)C(=O)N[C@@H](CC(N)=O)C(=O)N[C@H](CC(C)C)C(=O)N(C)[C@H](Cc2ccc(O)cc2)C(N)=O)NC1=O` (racemic) [compound 6, MeCO-Pen(3)-N-T-7MeW-K(Ac)-Pen(3)-AEF-2Nal-aMeK-k(Ac)-N-dL-NMeDTyr-CONH2], the IC50 was 64 nM. As for `CC(=O)N[C@H](CCCNC(=N)N)C(=O)N[C@@H]1C(=O)N[C@@H](CCC(N)=O)C(=O)N[C@@H]([C@@H](C)O)C(=O)N[C@@H](Cc2c[nH]c3ccccc23)C(=O)N[C@@H](CCC(N)=O)C(=O)N[C@H](C(=O)N[C@@H](Cc2ccc(OCCN)cc2)C(=O)N[C@@H](Cc2ccc3ccccc3c2)C(=O)NC2(C(=O)N[C@@](C)(CCC(=O)O)C(=O)N[C@@H](CC(N)=O)C(=O)N[C@@H](Cc3ccccc3)C(=O)N(C)[C@H](Cc3ccc(O)cc3)C(N)=O)CCOCC2)C(C)(C)SSC1(C)C` [compound 3, MeCO-r-Pen(3)-Q-T-W-Q-Pen(3)-AEF-2Nal-THp-aMeE-N-F-NMeDTyr-CONH2], inhibition was half-maximal at 2000 nM (IC50). Compound `CC(=O)NCCCC[C@@H]1NC(=O)[C@H](Cc2c[nH]c3c(C)cccc23)NC(=O)[C@H]([C@@H](C)O)NC(=O)[C@H](CC(N)=O)NC(=O)[C@@H](NC(C)=O)C(C)(C)SSC(C)(C)[C@@H](C(=O)N[C@@H](Cc2ccc(OCCN)cc2)C(=O)N[C@@H](Cc2ccc3ccccc3c2)C(=O)N[C@@](C)(CCCCN)C(=O)N[C@@H](CCCCNC(C)=O)C(=O)N[C@@H](CC(N)=O)C(=O)N[C@@H](C(=O)N(C)[C@H](Cc2ccc(O)cc2)C(N)=O)C(C)C)NC1=O` [compound 14, MeCO-Pen(3)-N-T-7MeW-K(Ac)-Pen(3)-AEF-2Nal-aMeK-K(Ac)-N-v-NMeDTyr-CONH2] registered an IC50 of 140 nM.

`CC(=O)N[C@H](CCCNC(=N)N)C(=O)N[C@@H]1C(=O)N[C@@H](CCC(N)=O)C(=O)N[C@@H]([C@@H](C)O)C(=O)N[C@@H](Cc2c[nH]c3ccccc23)C(=O)N[C@@H](CCC(N)=O)C(=O)N[C@H](C(=O)N[C@@H](Cc2ccc(OCCN)cc2)C(=O)N[C@@H](Cc2ccc3ccccc3c2)C(=O)NC2(C(=O)N[C@@H](CCC(=O)O)C(=O)N[C@@H](CC(N)=O)C(=O)N[C@@H](CC(N)=O)C(=O)N(C)[C@H](Cc3ccc(O)cc3)C(N)=O)CCOCC2)C(C)(C)SSC1(C)C` [compound 4, MeCO-r-Pen(3)-Q-T-W-Q-Pen(3)-AEF-2Nal-THP-E-N-N-NMe DTyr-CONH2]: the half-maximal inhibitory concentration (IC50) turned out to be 290 nM. With `CC(=O)NCCCC[C@H](NC(=O)[C@](C)(CCCCN)NC(=O)[C@H](Cc1ccc2ccccc2c1)NC(=O)[C@H](Cc1ccc(OCCN)cc1)NC(=O)[C@H]1NC(=O)[C@H](Cc2ccc(C(N)=O)cc2)NC(=O)[C@H](Cc2c[nH]c3c(C)cccc23)NC(=O)[C@H]([C@@H](C)O)NC(=O)[C@H](CC(N)=O)NC(=O)[C@@H](NC(C)=O)C(C)(C)SSC1(C)C)C(=O)N[C@@H](CC(N)=O)C(=O)N[C@H](CCCCN)C(=O)N(C)[C@H](Cc1ccc(O)cc1)C(N)=O` [compound 22, MeCO-Pen(3)-N-T-7MeW-4AmPhe-Pen(3)-AEF-2Nal-aMeK-K(Ac)-N-k-NMeDTyr-CONH2], inhibition was half-maximal at 160 nM (IC50). `CC(=O)NCCCC[C@H](NC(=O)[C@](C)(CC(C)C)NC(=O)[C@H](Cc1ccc2ccccc2c1)NC(=O)[C@H](Cc1ccc(OCCN)cc1)NC(=O)[C@H]1NC(=O)[C@H](CCCNC(N)=O)NC(=O)[C@H](Cc2c[nH]c3c(C)cccc23)NC(=O)[C@H]([C@@H](C)O)NC(=O)[C@H](CC(N)=O)NC(=O)[C@@H](NC(C)=O)C(C)(C)SSC1(C)C)C(=O)N[C@@H](CC(N)=O)C(=O)N[C@H](CCCCN)C(=O)N(C)[C@H](Cc1ccc(O)cc1)C(N)=O` [compound 25, MeCO-Pen(3)-N-T-7MeW-Cit-Pen(3)-AEF-2Nal-aMeL-K(Ac)-N-k-NMeDTyr-CONH2] came in with a concentration for half-maximal inhibition (IC50) of 48 nM. For `CC(=O)NCCCC[C@@H]1NC(=O)[C@H](Cc2c[nH]c3c(C)cccc23)NC(=O)[C@H]([C@@H](C)O)NC(=O)[C@H](CC(N)=O)NC(=O)[C@@H](NC(=O)[C@@H](CCCNC(=N)N)NC(C)=O)C(C)(C)SSC(C)(C)[C@@H](C(=O)N[C@@H](Cc2ccc(OCCN)cc2)C(=O)N[C@@H](Cc2ccc3ccccc3c2)C(=O)NC2(C(=O)N[C@@H](CCC(=O)O)C(=O)N[C@@H](CC(N)=O)C(=O)N[C@H](Cc3c[nH]cn3)C(=O)N(C)[C@H](Cc3ccc(O)cc3)C(N)=O)CCOCC2)NC1=O` [compound 11, MeCO-r-Pen(3)-N-T-7MeW-K(Ac)-Pen(3)-AEF-2Nal-THP-E-N-h-NMeDTyr-CONH2], the IC50 was more than 16600 nM. The same measure for `CC(=O)NCCCC[C@@H]1NC(=O)[C@H](Cc2c[nH]c3c(C)cccc23)NC(=O)[C@H]([C@@H](C)O)NC(=O)[C@H](CC(N)=O)NC(=O)[C@@H](NC(C)=O)C(C)(C)SSC(C)(C)[C@@H](C(=O)N[C@@H](Cc2ccc(OCCN)cc2)C(=O)N[C@@H](Cc2ccc3ccccc3c2)C(=O)N[C@@](C)(CCCCN)C(=O)N[C@@H](CCCCNC(C)=O)C(=O)N[C@@H](CC(N)=O)C(=O)N[C@H](Cc2cccnc2)C(=O)N(C)[C@H](Cc2ccc(O)cc2)C(N)=O)NC1=O` [compound 32, MeCO-Pen(3)-N-T-7MeW-K(Ac)-Pen(3)-AEF-2Nal-aMeK-K(ac)-N-3pya-NMeDTyr-CONH2]: 16 nM. With `CC(=O)NCCCC[C@@H]1NC(=O)[C@H](Cc2c[nH]c3c(C)cccc23)NC(=O)[C@H]([C@@H](C)O)NC(=O)[C@H](CC(N)=O)NC(=O)[C@@H](NC(=O)[C@@H](CCCNC(=N)N)NC(C)=O)C(C)(C)SSC(C)(C)[C@@H](C(=O)N[C@@H](Cc2ccc(OCCN)cc2)C(=O)N[C@@H](Cc2ccc3ccccc3c2)C(=O)NC2(C(=O)N[C@@H](CCC(=O)O)C(=O)N[C@@H](CC(N)=O)C(=O)N[C@@H](CC(N)=O)C(=O)N(C)[C@H](Cc3ccc(O)cc3)C(N)=O)CCOCC2)NC1=O` [compound 12, MeCO-r-Pen(3)-N-T-7MeW-K(Ac)-Pen(3)-AEF-2Nal-THP-E-N-N-NMeDTyr-CONH2] the figure was more than 16600 nM; with `CC(=O)NCCCC[C@@H]1NC(=O)[C@H](Cc2c[nH]c3c(C)cccc23)NC(=O)[C@H]([C@@H](C)O)NC(=O)[C@H](CC(N)=O)NC(=O)[C@@H](NC(C)=O)C(C)(C)SSC(C)(C)[C@@H](C(=O)N[C@@H](Cc2ccc(OCCN)cc2)C(=O)N[C@@H](Cc2ccc3ccccc3c2)C(=O)N[C@@](C)(CCCCN)C(=O)N[C@H](CCCCNC(C)=O)C(=O)N[C@@H](CC(N)=O)C(=O)N[C@H](CCCCN)C(=O)N(C)[C@H](Cc2ccc(O)cc2)C(N)=O)NC1=O` [compound 5, MeCO-Pen(3)-N-T-7MeW-K(Ac)-Pen(3)-AEF-2Nal-aMeK-k(Ac)-N-dK-NMeDTyr-CONH2], 53 nM; with `CC(=O)NCCCC[C@@H]1NC(=O)[C@H](Cc2c[nH]c3c(C)cccc23)NC(=O)[C@H]([C@@H](C)O)NC(=O)[C@H](CC(N)=O)NC(=O)[C@@H](NC(C)=O)C(C)(C)SSC(C)(C)[C@@H](C(=O)N[C@@H](Cc2ccc(OCCN)cc2)C(=O)N[C@@H](Cc2ccc3ccccc3c2)C(=O)N[C@@](C)(CCCCN)C(=O)N[C@@H](CCCCNC(C)=O)C(=O)N[C@@H](CC(N)=O)C(=O)N[C@@H](Cc2c[nH]cn2)C(=O)N(C)[C@H](Cc2ccc(O)cc2)C(N)=O)NC1=O` [compound 8, MeCO-Pen(3)-N-T-7MeW-K(Ac)-Pen(3)-AEF-2Nal-aMeK-K(Ac)-N-H-NMeDTyr-CONH2], 89 nM. Take `CC(=O)NCCCC[C@@H]1NC(=O)[C@H](Cc2c[nH]c3c(C)cccc23)NC(=O)[C@H]([C@@H](C)O)NC(=O)[C@H](CC(N)=O)NC(=O)[C@@H](NC(C)=O)C(C)(C)SSC(C)(C)[C@@H](C(=O)N[C@@H](Cc2ccc(OCCN)cc2)C(=O)N[C@@H](Cc2ccc3ccccc3c2)C(=O)N[C@@](C)(CCCCN)C(=O)N[C@@H](CCCCNC(C)=O)C(=O)N[C@@H](CC(N)=O)C(=O)N[C@H](CCCN)C(=O)N(C)[C@H](Cc2ccc(O)cc2)C(N)=O)NC1=O` [compound 18, MeCO-Pen(3)-N-T-7MeW-K(Ac)-Pen(3)-AEF-2Nal-aMeK-K(Ac)-N-orn-NMeDTyr-CONH2]: the IC50 turned out to be 43 nM. For `CC(=O)NCCCC[C@@H]1NC(=O)[C@H](Cc2c[nH]c3c(C)cccc23)NC(=O)[C@H]([C@@H](C)O)NC(=O)[C@H](CC(N)=O)NC(=O)[C@@H](NC(C)=O)C(C)(C)SSC(C)(C)[C@@H](C(=O)N[C@@H](Cc2ccc(OCCN)cc2)C(=O)N[C@@H](Cc2ccc3ccccc3c2)C(=O)N[C@@](C)(CCCCN)C(=O)N[C@@H](CCCCNC(C)=O)C(=O)N[C@@H](CC(N)=O)C(=O)N[C@@H](CC(N)=O)C(=O)N(C)[C@H](Cc2ccc(O)cc2)C(N)=O)NC1=O` [compound 13, MeCO-Pen(3)-N-T-7MeW-K(Ac)-Pen(3)-AEF-2Nal-aMeK-K(Ac)-N-N-NMeDTyr-CONH2], it took 160 nM to reach half-maximal inhibition (IC50).
